# Results from the supplement of paper PMC8728848.
# The list shows a part of the results.
# B1: PX9937F-bfa-516-16-516 (Bacteroides fragilis) (protein)
# chain: LDIDPTSSIADSNYWKTEAQFSTFNVGLHALLRECSFNFFLLGEPRADIYGDVPFGGEATQGMERLPFNTINKENTGISNFAGMYKVINQINLMIAKTKETTVLSEAGKNYYLGEAYGMRAYLYFHLLRSWGDVILYLDYTNGASLDLSNLSKAASPAEEVMKQIKEDITASEKGFGSDYSFKYGRYYWSMAATQMLKGEVYLWSGRQMGGGTADYTTAKTALQSIVSNANVSLQDDFSKVFAYNNKDNSEIIFSIRNAKDEYNMWDDRFRQNLVPQQAYMTSTYCNKEGVSFKDLPEGQLNGLIRLQIRYDLYNKAFRDGDTRKDASMTAVYQKQQDGTVKYIAPFCNKYQGVLLDGASQRSFLNDYPIYRYADCLLLLAEAKALLGEDPTAEINQVRERAYGKEFFEANKATLAYPNDKGDFYTDNKYMSGDEDPLEAILKERMREFMFEGKRWYDLRLLGADYVTKRTSAVATRLLWPINESVLTDNPALKQTPGYQN
# Key:
# Test in all cases: glycan array binding signal (z-score within array); higher = stronger binding
# Details in all cases: glycan notation: IUPAC condensed, linker removed
# [1] = biological target: Gal(b1-3)GlcNAc(b1-3)Gal(b1-4)GlcNAc(b1-2)[Gal(b1-3)GlcNAc(b1-3)Gal(b1-4)GlcNAc(b1-6)]Man(a1-6)[Gal(b1-3)GlcNAc(b1-3)Gal(b1-4)GlcNAc(b1-2)Man(a1-3)]Man(b1-4)GlcNAc(b1-4)[Fuc(a1-6)]GlcNAc
# Method in brief: (§1)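 Glycan array data were curated from 3228 arrays in the Consortium for Functional Glycomics database and kept only where the protein sequence was available. Glycan names were converted to IUPAC-condensed notation, and columns mapping to the same glycan were averaged. The binding signal is a within-array Z-score, averaged across arrays of the same protein sequence at different concentrations or buffers and across linkers. Negative Z-scores can be read as non-binding.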
# [2] = biological target: Gal(b1-3)GlcNAc(b1-3)Gal(b1-4)GlcNAc(b1-3)Gal(b1-4)GlcNAc(b1-2)[Gal(b1-3)GlcNAc(b1-3)Gal(b1-4)GlcNAc(b1-3)Gal(b1-4)GlcNAc(b1-6)]Man(a1-6)[Gal(b1-3)GlcNAc(b1-3)Gal(b1-4)GlcNAc(b1-3)Gal(b1-4)GlcNAc(b1-2)Man(a1-3)]Man(b1-4)GlcNAc(b1-4)[Fuc(a1-6)]GlcNAc
# Method in brief: as §1
# [3] = biological target: Gal(b1-3)GlcNAc(b1-3)Gal(b1-4)GlcNAc(b1-6)[Gal(b1-3)GlcNAc(b1-3)]Gal(b1-4)Glc
# Method in brief: as §1
# [4] = biological target: Gal(b1-3)GlcNAc(b1-3)Gal(b1-4)[Fuc(a1-3)]GlcNAc
# Method in brief: as §1
# [5] = biological target: Gal(b1-3)GlcNAc(b1-3)Gal(b1-4)[Fuc(a1-3)]GlcNAc(b1-6)[Gal(b1-3)GlcNAc(b1-3)]Gal(b1-4)Glc
# Method in brief: as §1
# [6] = biological target: Gal(b1-3)GlcNAc(b1-3)GalNAc
# Method in brief: as §1
# [7] = biological target: Gal(b1-3)GlcNAc(b1-6)Gal(b1-4)GlcNAc
# Method in brief: as §1
# [8] = biological target: Gal(b1-3)GlcNAc(b1-6)GalNAc
# Method in brief: as §1
# [9] = biological target: Gal(b1-3)GlcNAc(b1-6)[Gal(b1-3)]GalNAc
# Method in brief: as §1
# Gal(b1-3)GlcNAc6S = biological target: Gal(b1-3)GlcNAc6S
# Method in brief: as §1
# [10] = biological target: Gal(b1-3)[Fuc(a1-4)]GlcNAc
# Method in brief: as §1
# [11] = biological target: Gal(b1-3)[Fuc(a1-4)]GlcNAc(b1-2)Man
# Method in brief: as §1
# [12] = biological target: Gal(b1-3)[Fuc(a1-4)]GlcNAc(b1-2)Man(a1-3)[Gal(b1-3)[Fuc(a1-4)]GlcNAc(b1-2)Man(a1-6)]Man(b1-4)GlcNAc(b1-4)[Fuc(a1-6)]GlcNAc
# Method in brief: as §1
# [13] = biological target: Gal(b1-3)[Fuc(a1-4)]GlcNAc(b1-3)Gal(b1-3)[Fuc(a1-4)]GlcNAc
# Method in brief: as §1
# [14] = biological target: Gal(b1-3)[Fuc(a1-4)]GlcNAc(b1-3)Gal(b1-4)[Fuc(a1-3)]GlcNAc
# Method in brief: as §1
# [15] = biological target: Gal(b1-3)[Fuc(a1-4)]GlcNAc(b1-6)GalNAc
# Method in brief: as §1
# [16] = biological target: Gal(b1-3)[GlcNAc(b1-6)]GalNAc
# Method in brief: as §1
# [17] = biological target: Gal(b1-3)[Neu5Ac(a2-6)]GalNAc
# Method in brief: as §1
# [18] = biological target: Gal(b1-3)[Neu5Ac(a2-6)]GlcNAc(b1-4)Gal(b1-4)Glc
# Method in brief: as §1
# [19] = biological target: Gal(b1-3)[Neu5Ac(b2-6)]GalNAc
# Method in brief: as §1
# Gal(b1-4)Gal = biological target: Gal(b1-4)Gal
# Method in brief: as §1
# [20] = biological target: Gal(b1-4)GalNAc(a1-3)[Fuc(a1-2)]Gal(b1-4)GlcNAc
# Method in brief: as §1
# [21] = biological target: Gal(b1-4)GalNAc(b1-3)[Fuc(a1-2)]Gal(b1-4)GlcNAc
# Method in brief: as §1
# Gal(b1-4)Glc = biological target: Gal(b1-4)Glc
# Method in brief: as §1
# Gal(b1-4)Glc6S = biological target: Gal(b1-4)Glc6S
# Method in brief: as §1
# Gal(b1-4)GlcNAc = biological target: Gal(b1-4)GlcNAc
# Method in brief: as §1
# [22] = biological target: Gal(b1-4)GlcNAc(a1-6)Gal(b1-4)GlcNAc
# Method in brief: as §1
# Gal(b1-4)GlcNAc(b1-2)Man = biological target: Gal(b1-4)GlcNAc(b1-2)Man
# Method in brief: as §1
# [23] = biological target: Gal(b1-4)GlcNAc(b1-2)Man(a1-3)Man(b1-4)GlcNAc(b1-4)GlcNAc
# Method in brief: as §1
# [24] = biological target: Gal(b1-4)GlcNAc(b1-2)Man(a1-3)[Gal(b1-4)GlcNAc(b1-2)Man(a1-6)]Man(b1-4)GlcNAc(b1-4)GlcNAc
# Method in brief: as §1
# [25] = biological target: Gal(b1-4)GlcNAc(b1-2)Man(a1-3)[Gal(b1-4)GlcNAc(b1-2)Man(a1-6)]Man(b1-4)GlcNAc(b1-4)[Fuc(a1-6)]GlcNAc
# Method in brief: as §1
# [26] = biological target: Gal(b1-4)GlcNAc(b1-2)Man(a1-3)[Gal(b1-4)GlcNAc(b1-2)Man(a1-6)][Gal(b1-4)GlcNAc(b1-4)]Man(b1-4)GlcNAc(b1-4)[Fuc(a1-6)]GlcNAc
# Method in brief: as §1
# [27] = biological target: Gal(b1-4)GlcNAc(b1-2)Man(a1-3)[Gal(b1-4)GlcNAc(b1-2)Man(a1-6)][GlcNAc(b1-4)]Man(b1-4)GlcNAc(b1-4)[Fuc(a1-6)]GlcNAc
# Method in brief: as §1
# [28] = biological target: Gal(b1-4)GlcNAc(b1-2)Man(a1-3)[GlcNAc(b1-2)Man(a1-6)]Man(b1-4)GlcNAc(b1-4)GlcNAc
# Method in brief: as §1
# [29] = biological target: Gal(b1-4)GlcNAc(b1-2)Man(a1-3)[GlcNAc(b1-4)][Gal(b1-4)GlcNAc(b1-2)Man(a1-6)]Man(b1-4)GlcNAc(b1-4)GlcNAc
# Method in brief: as §1
# [30] = biological target: Gal(b1-4)GlcNAc(b1-2)Man(a1-3)[Man(a1-6)]Man(b1-4)GlcNAc(b1-4)GlcNAc
# Method in brief: as §1
# [31] = biological target: Gal(b1-4)GlcNAc(b1-2)Man(a1-6)Man(b1-4)GlcNAc(b1-4)GlcNAc
# Method in brief: as §1
# [32] = biological target: Gal(b1-4)GlcNAc(b1-2)Man(a1-6)[GlcNAc(b1-2)Man(a1-3)]Man(b1-4)GlcNAc(b1-4)GlcNAc
# Method in brief: as §1
binder,measurement,setting,value
B1,glycan array binding signal (z-score),[1],7.79
same,glycan array binding signal (z-score),[2],0.635
same,glycan array binding signal (z-score),[3],-0.142
same,glycan array binding signal (z-score),[4],-0.014
same,glycan array binding signal (z-score),[5],-0.388
same,glycan array binding signal (z-score),[6],-0.319
same,glycan array binding signal (z-score),[7],-0.358
same,glycan array binding signal (z-score),[8],-0.477
same,glycan array binding signal (z-score),[9],-0.223
same,glycan array binding signal (z-score),Gal(b1-3)GlcNAc6S,-0.283
same,glycan array binding signal (z-score),[10],-0.212
same,glycan array binding signal (z-score),[11],0.5
same,glycan array binding signal (z-score),[12],-0.1
same,glycan array binding signal (z-score),[13],-0.143
same,glycan array binding signal (z-score),[14],-0.307
same,glycan array binding signal (z-score),[15],1.88
same,glycan array binding signal (z-score),[16],-0.315
same,glycan array binding signal (z-score),[17],-0.269
same,glycan array binding signal (z-score),[18],0.05
same,glycan array binding signal (z-score),[19],-0.274
same,glycan array binding signal (z-score),Gal(b1-4)Gal,-0.182
same,glycan array binding signal (z-score),[20],-0.222
same,glycan array binding signal (z-score),[21],1.14
same,glycan array binding signal (z-score),Gal(b1-4)Glc,-0.221
same,glycan array binding signal (z-score),Gal(b1-4)Glc6S,0.112
same,glycan array binding signal (z-score),Gal(b1-4)GlcNAc,0.003
same,glycan array binding signal (z-score),[22],-0.238
same,glycan array binding signal (z-score),Gal(b1-4)GlcNAc(b1-2)Man,-0.006
same,glycan array binding signal (z-score),[23],-0.097
same,glycan array binding signal (z-score),[24],-0.049
same,glycan array binding signal (z-score),[25],0.69
same,glycan array binding signal (z-score),[26],-0.081
same,glycan array binding signal (z-score),[27],-0.376
same,glycan array binding signal (z-score),[28],-0.116
same,glycan array binding signal (z-score),[29],-0.256
same,glycan array binding signal (z-score),[30],-0.304
same,glycan array binding signal (z-score),[31],0.186
same,glycan array binding signal (z-score),[32],-0.357
